# The supplement of paper PMC4604168 (melanoma cell lines)
# Some of the results follow. Many values rest on one well or one pass, so single values are uncertain.
# Legend:
# Test in all cases: cell count relative to DMSO control; melanoma cells; higher = more viable cells
# Settings in all cases: library dose: low library concentration; 72 h
# MZ2-MEL = tested on: MZ2-MEL
# MeWo = tested on: MeWo
# RPMI7951 = tested on: RPMI7951
# RVH-421 = tested on: RVH-421
# SkMel28 = tested on: SkMel28
# SkMel2 = tested on: SkMel2
# SkMel30 = tested on: SkMel30
# UACC62 = tested on: UACC62
# 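Also: cell number obtained by counting DAPI-stained nuclei in high-throughput microscope images with image analysis software, screen run in 1,536-well plates.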
SMILES,cell count (MZ2-MEL) [%],cell count (MeWo) [%],cell count (RPMI7951) [%],cell count (RVH-421) [%],cell count (SkMel28) [%],cell count (SkMel2) [%],cell count (SkMel30) [%],cell count (UACC62) [%]
"CC(=O)c1c(C)c2cnc(Nc3ccc(N4CCNCC4)cn3)nc2n(C2CCCC2)c1=O [palbociclib] + Clc1ccc(Nc2nnc(Cc3ccncc3)c3ccccc23)cc1 [vatalanib] (first compound 0.04 µM, partner dose 2 µM)",81.1,61.2,79.2,83.1,79.4,83.8,78.4,83.5
"Nc1ncn([C@H]2C[C@H](O)[C@@H](CO)O2)c(=O)n1 [decitabine] + COc1ccc(Cl)c(Nc2nc3ccccc3nc2NS(=O)(=O)c2cccc(NC(=O)C(C)(C)N)c2)c1 [XL147] (first compound 0.1 µM, partner dose 0.8 µM)",76.4,92.1,89.5,92.9,113,93.8,132,90.4
"Nc1ccn([C@@H]2O[C@H](CO)[C@@H](O)C2(F)F)c(=O)n1 [gemcitabine] + Nc1ncn([C@H]2C[C@H](O)[C@@H](CO)O2)c(=O)n1 [decitabine] (first compound 0.0004 µM, partner dose 0.1 µM)",82.4,87.2,58.5,94.7,96.4,103,97.8,83.4
"CC(=O)O[C@@]12CO[C@@H]1C[C@H](O)[C@@]1(C)C(=O)[C@H](O)C3=C(C)[C@@H](OC(=O)[C@H](O)[C@@H](NC(=O)OC(C)(C)C)c4ccccc4)C[C@@](O)([C@@H](OC(=O)c4ccccc4)[C@H]21)C3(C)C [Docetaxel] + C[C@@H](Oc1cc(-c2cnn(C3CCNCC3)c2)cnc1N)c1c(Cl)ccc(F)c1Cl [Crizotinib] (first compound 0.0001 µM, partner dose 0.2 µM)",41.7,54.5,43.3,56.9,24.9,41.4,36,52.4
"CC(=O)O[C@@]12CO[C@@H]1C[C@H](O)[C@@]1(C)C(=O)[C@H](O)C3=C(C)[C@@H](OC(=O)[C@H](O)[C@@H](NC(=O)OC(C)(C)C)c4ccccc4)C[C@@](O)([C@@H](OC(=O)c4ccccc4)[C@H]21)C3(C)C [Docetaxel] + Nc1nc(F)nc2c1ncn2[C@@H]1O[C@H](CO)[C@@H](O)[C@@H]1O [fludarabine] (first compound 0.0001 µM, partner dose 0.2 µM)",44.3,20.6,34.3,64.3,26.9,8.37,17.5,30.4
"Nc1nc(F)nc2c1ncn2[C@@H]1O[C@H](CO)[C@@H](O)[C@@H]1O [fludarabine] + Nc1ncn([C@H]2C[C@H](O)[C@@H](CO)O2)c(=O)n1 [decitabine] (first compound 0.2 µM, partner dose 0.1 µM)",89,25,64.6,78.7,59,3.44,16.7,71.3
"Nc1ccn([C@@H]2O[C@H](CO)[C@@H](O)C2(F)F)c(=O)n1 [gemcitabine] + COCC[n+]1c2c(n(Cc3cnccn3)c1C)C(=O)c1ccccc1C2=O [YM155] (first compound 0.0004 µM, partner dose 0.0004 µM)",44.9,93.3,88.1,95.8,81.3,100,114,88.2
"Nc1ccn([C@@H]2O[C@H](CO)[C@@H](O)C2(F)F)c(=O)n1 [gemcitabine] + Nc1nc(F)nc2c1ncn2[C@@H]1O[C@H](CO)[C@@H](O)[C@@H]1O [fludarabine] (first compound 0.0004 µM, partner dose 0.2 µM)",89.9,36.2,77.5,72.8,78,11.2,19.1,78.5
"Nc1ncn([C@H]2C[C@H](O)[C@@H](CO)O2)c(=O)n1 [decitabine] + Cn1c(Nc2ccc(C(F)(F)F)cc2)nc2cc(Oc3ccnc(-c4ncc(C(F)(F)F)[nH]4)c3)ccc21 [CHIR265] (first compound 0.1 µM, partner dose 0.08 µM)",64.6,73.2,48.5,64.8,51.8,85.1,50.7,46.9
"Nc1ccn([C@@H]2O[C@H](CO)[C@@H](O)C2(F)F)c(=O)n1 [gemcitabine] + C=CCNC1=C2C[C@@H](C)C[C@H](OC)[C@H](O)[C@@H](C)/C=C(\C)[C@H](OC(N)=O)[C@@H](OC)/C=C\C=C(/C)C(=O)NC(=CC1=O)C2=O [Tanespimycin] (first compound 0.0004 µM, partner dose 0.002 µM)",90.7,94.3,101,78.7,99.1,98.3,79.2,81.1
"CC(=O)c1c(C)c2cnc(Nc3ccc(N4CCNCC4)cn3)nc2n(C2CCCC2)c1=O [palbociclib] + COc1ccc(Cl)c(Nc2nc3ccccc3nc2NS(=O)(=O)c2cccc(NC(=O)C(C)(C)N)c2)c1 [XL147] (first compound 0.04 µM, partner dose 0.8 µM)",89.2,74.6,76.6,78.5,94.2,75.4,68.2,84.1
"Nc1nc(F)nc2c1ncn2[C@@H]1O[C@H](CO)[C@@H](O)[C@@H]1O [fludarabine] + CC(=O)c1c(C)c2cnc(Nc3ccc(N4CCNCC4)cn3)nc2n(C2CCCC2)c1=O [palbociclib] (first compound 0.2 µM, partner dose 0.04 µM)",75.2,27.7,74.7,89.4,66.6,5.16,16.4,68
"CC(=O)O[C@@]12CO[C@@H]1C[C@H](O)[C@@]1(C)C(=O)[C@H](O)C3=C(C)[C@@H](OC(=O)[C@H](O)[C@@H](NC(=O)OC(C)(C)C)c4ccccc4)C[C@@](O)([C@@H](OC(=O)c4ccccc4)[C@H]21)C3(C)C [Docetaxel] + CNC(=O)c1cc(Oc2ccc(NC(=O)Nc3ccc(Cl)c(C(F)(F)F)c3)cc2)ccn1 [sorafenib] (first compound 0.0001 µM, partner dose 0.4 µM)",42.3,44.1,39,54.8,46,33.6,30.8,40.5
"CC(=O)O[C@@]12CO[C@@H]1C[C@H](O)[C@@]1(C)C(=O)[C@H](O)C3=C(C)[C@@H](OC(=O)[C@H](O)[C@@H](NC(=O)OC(C)(C)C)c4ccccc4)C[C@@](O)([C@@H](OC(=O)c4ccccc4)[C@H]21)C3(C)C [Docetaxel] + C[C@]1(c2nc3c(C(N)=O)cccc3[nH]2)CCCN1 [Veliparib] (first compound 0.0001 µM, partner dose 1.4 µM)",41.3,44.7,28.9,56.2,34.9,38.5,33.1,35.5
"Nc1ncn([C@H]2C[C@H](O)[C@@H](CO)O2)c(=O)n1 [decitabine] + Cc1nc(Nc2ncc(C(=O)Nc3c(C)cccc3Cl)s2)cc(N2CCN(CCO)CC2)n1 [dasatanib] (first compound 0.1 µM, partner dose 0.004 µM)",92,85.4,71.7,92,52.3,106,123,72.9
"Nc1ccn([C@@H]2O[C@H](CO)[C@@H](O)C2(F)F)c(=O)n1 [gemcitabine] + C[C@]1(c2nc3c(C(N)=O)cccc3[nH]2)CCCN1 [Veliparib] (first compound 0.0004 µM, partner dose 1.4 µM)",89.7,89.2,77.1,115,86.7,105,80.1,87.9
"CC(=O)O[C@@]12CO[C@@H]1C[C@H](O)[C@@]1(C)C(=O)[C@H](O)C3=C(C)[C@@H](OC(=O)[C@H](O)[C@@H](NC(=O)OC(C)(C)C)c4ccccc4)C[C@@](O)([C@@H](OC(=O)c4ccccc4)[C@H]21)C3(C)C [Docetaxel] + C=CCNC1=C2C[C@@H](C)C[C@H](OC)[C@H](O)[C@@H](C)/C=C(\C)[C@H](OC(N)=O)[C@@H](OC)/C=C\C=C(/C)C(=O)NC(=CC1=O)C2=O [Tanespimycin] (first compound 0.0001 µM, partner dose 0.002 µM)",39.8,48.3,35.3,68.3,37.5,44.8,29.4,44.7
"Nc1nc(F)nc2c1ncn2[C@@H]1O[C@H](CO)[C@@H](O)[C@@H]1O [fludarabine] + C=CCNC1=C2C[C@@H](C)C[C@H](OC)[C@H](O)[C@@H](C)/C=C(\C)[C@H](OC(N)=O)[C@@H](OC)/C=C\C=C(/C)C(=O)NC(=CC1=O)C2=O [Tanespimycin] (first compound 0.2 µM, partner dose 0.002 µM)",107,35.7,79,72,92.7,6.96,22.7,93.5
"CC(=O)O[C@@]12CO[C@@H]1C[C@H](O)[C@@]1(C)C(=O)[C@H](O)C3=C(C)[C@@H](OC(=O)[C@H](O)[C@@H](NC(=O)OC(C)(C)C)c4ccccc4)C[C@@](O)([C@@H](OC(=O)c4ccccc4)[C@H]21)C3(C)C [Docetaxel] + CC(=O)c1c(C)c2cnc(Nc3ccc(N4CCNCC4)cn3)nc2n(C2CCCC2)c1=O [palbociclib] (first compound 0.0001 µM, partner dose 0.04 µM)",36.3,52.1,40.2,51.7,39.5,46.5,33.2,38.3
"CC(=O)O[C@@]12CO[C@@H]1C[C@H](O)[C@@]1(C)C(=O)[C@H](O)C3=C(C)[C@@H](OC(=O)[C@H](O)[C@@H](NC(=O)OC(C)(C)C)c4ccccc4)C[C@@](O)([C@@H](OC(=O)c4ccccc4)[C@H]21)C3(C)C [Docetaxel] + O=C(O)[C@@H]1[O][Sb](=[O])([O][Sb]2(=[O])[O][C@H]([C@H](O)CO)[C@H](O)[C@H](C(=O)O)[O]2)[O][C@H]([C@H](O)CO)[C@@H]1O [stibogluconate] (first compound 0.0001 µM, partner dose 2 µM)",49.6,45.8,42.8,68.1,62.8,52.5,48.6,42.9
